This is one part of the list.
Tests used:
Assay in all cases: glycan array binding signal (z-score within array); higher = stronger binding
Settings in all cases: glycan notation: IUPAC condensed, linker removed
[1] = target: Fuc(a1-3)[Gal3S(b1-4)]GlcNAc
How it was run: (§1)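 The Consortium for Functional Glycomics database supplied 3228 glycan arrays, of which those lacking an available protein sequence were dropped. The binding signal, a within-array Z-score, was averaged across arrays of the same protein sequence and across linkers. Negative scores can be read as non-binding.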

[2] = target: Fuc(a1-3)[Gal3S(b1-4)]GlcNAc6S
How it was run: as §1

[3] = target: Fuc(a1-3)[GalNAc(b1-4)]GlcNAc
How it was run: as §1

[4] = target: Fuc(a1-3)[GalNAc(b1-4)]GlcNAc6S
How it was run: as §1

Fuc(a1-4)GlcNAc = target: Fuc(a1-4)GlcNAc
How it was run: as §1

Fuc(b1-3)GlcNAc = target: Fuc(b1-3)GlcNAc
How it was run: as §1

Gal(a1-2)Gal = target: Gal(a1-2)Gal
How it was run: as §1

Gal(a1-3)Gal = target: Gal(a1-3)Gal
How it was run: as §1

Gal(a1-3)Gal(b1-3)GlcNAc = target: Gal(a1-3)Gal(b1-3)GlcNAc
How it was run: as §1

[5] = target: Gal(a1-3)Gal(b1-3)GlcNAc(b1-2)Man
How it was run: as §1

[6] = target: Gal(a1-3)Gal(b1-3)GlcNAc(b1-2)Man(a1-3)[Gal(a1-3)Gal(b1-3)GlcNAc(b1-2)Man(a1-6)]Man(b1-4)GlcNAc(b1-4)GlcNAc
How it was run: as §1

[7] = target: Gal(a1-3)Gal(b1-3)GlcNAc(b1-3)GalNAc
How it was run: as §1

[8] = target: Gal(a1-3)Gal(b1-3)GlcNAc(b1-6)GalNAc
How it was run: as §1

[9] = target: Gal(a1-3)Gal(b1-3)[Fuc(a1-4)]GlcNAc(b1-2)Man(a1-3)[Gal(a1-3)Gal(b1-3)[Fuc(a1-4)]GlcNAc(b1-2)Man(a1-6)]Man(b1-4)GlcNAc(b1-4)GlcNAc
How it was run: as §1

Gal(a1-3)Gal(b1-4)Glc = target: Gal(a1-3)Gal(b1-4)Glc
How it was run: as §1

Gal(a1-3)Gal(b1-4)GlcNAc = target: Gal(a1-3)Gal(b1-4)GlcNAc
How it was run: as §1

[10] = target: Gal(a1-3)Gal(b1-4)GlcNAc(b1-2)Man
How it was run: as §1

[11] = target: Gal(a1-3)Gal(b1-4)GlcNAc(b1-2)Man(a1-3)[Gal(a1-3)Gal(b1-4)GlcNAc(b1-2)Man(a1-6)]Man(b1-4)GlcNAc(b1-4)GlcNAc
How it was run: as §1

[12] = target: Gal(a1-3)Gal(b1-4)GlcNAc(b1-3)GalNAc
How it was run: as §1

[13] = target: Gal(a1-3)Gal(b1-4)GlcNAc(b1-6)GalNAc
How it was run: as §1

[14] = target: Gal(a1-3)Gal(b1-4)[Fuc(a1-3)]GlcNAc
How it was run: as §1

[15] = target: Gal(a1-3)Gal(b1-4)[Fuc(a1-3)]GlcNAc(b1-2)Man(a1-3)[Gal(a1-3)Gal(b1-4)[Fuc(a1-3)]GlcNAc(b1-2)Man(a1-6)]Man(b1-4)GlcNAc(b1-4)GlcNAc
How it was run: as §1

Gal(a1-3)GalNAc = target: Gal(a1-3)GalNAc
How it was run: as §1

[16] = target: Gal(a1-3)[Gal(a1-4)]Gal(b1-4)GlcNAc
How it was run: as §1

[17] = target: Gal(a1-4)Gal(b1-3)GlcNAc(b1-2)Man(a1-3)[Gal(a1-4)Gal(b1-3)GlcNAc(b1-2)Man(a1-6)]Man(b1-4)GlcNAc(b1-4)GlcNAc
How it was run: as §1

Gal(a1-4)Gal(b1-4)Glc = target: Gal(a1-4)Gal(b1-4)Glc
How it was run: as §1

Gal(a1-4)Gal(b1-4)GlcNAc = target: Gal(a1-4)Gal(b1-4)GlcNAc
How it was run: as §1

[18] = target: Gal(a1-4)Gal(b1-4)GlcNAc(b1-2)Man(a1-3)[Gal(a1-4)Gal(b1-4)GlcNAc(b1-2)Man(a1-6)]Man(b1-4)GlcNAc(b1-4)GlcNAc
How it was run: as §1

[19] = target: Gal(a1-4)Gal(b1-4)GlcNAc(b1-3)Gal(b1-4)Glc
How it was run: as §1

Gal(a1-4)GlcNAc = target: Gal(a1-4)GlcNAc
How it was run: as §1

Gal(a1-6)Glc = target: Gal(a1-6)Glc
How it was run: as §1

Gal(b1-2)Gal = target: Gal(b1-2)Gal
How it was run: as §1

Gal(b1-3)Gal = target: Gal(b1-3)Gal
How it was run: as §1

Gal(b1-3)Gal(b1-4)GlcNAc = target: Gal(b1-3)Gal(b1-4)GlcNAc
How it was run: as §1

Gal(b1-3)GalNAc = target: Gal(b1-3)GalNAc
How it was run: as §1

[20] = target: Gal(b1-3)GalNAc(a1-3)[Fuc(a1-2)]Gal(b1-4)Glc
How it was run: as §1

[21] = target: Gal(b1-3)GalNAc(a1-3)[Fuc(a1-2)]Gal(b1-4)GlcNAc
How it was run: as §1

B1: SRA-1 (Homo sapiens), P21757 (protein)
chain: MEQWDHFHNQQEDTDSCSESVKFDARSMTALLPPNPKNSPSLQEKLKSFKAALIALYLLVFAVLIPLIGIVAAQLLKWETKNCSVSSTNANDITQSLTGKGNDSEEEMRFQEVFMEHMSNMEKRIQHILDMEANLMDTEHFQNFSMTTDQRFNDILLQLSTLFSSVQGHGNAIDEISKSLISLNTTLLDLQLNIENLNGKIQENTFKQQEEISKLEERVYNVSAEIMAMKEEQVHLEQEIKGEVKVLNNITNDLRLKDWEHSQTLRNITLIQGPPGPPGEKGDRGPTGESGPRGFPGPIGPPGLKGDRGAIGFPGSRGLPGYAGRPGNSGPKGQKGEKGSGNTLTPFTKVRLVGGSGPHEGRVEILHSGQWGTICDDRWEVRVGQVVCRSLGYPGVQAVHKAAHFGQGTGPIWLNEVFCFGRESSIEECKIRQWGTRACSHSEDAGVTCTL
glycan array binding signal (z-score) [1]: 0.315
glycan array binding signal (z-score) [2]: 0.048
glycan array binding signal (z-score) [3]: 1
glycan array binding signal (z-score) [4]: 0.758
glycan array binding signal (z-score) (Fuc(a1-4)GlcNAc): 0.616
glycan array binding signal (z-score) (Fuc(b1-3)GlcNAc): -0.343
glycan array binding signal (z-score) (Gal(a1-2)Gal): -0.324
glycan array binding signal (z-score) (Gal(a1-3)Gal): -0.163
glycan array binding signal (z-score) (Gal(a1-3)Gal(b1-3)GlcNAc): 0.035
glycan array binding signal (z-score) [5]: -0.15
glycan array binding signal (z-score) [6]: 0.219
glycan array binding signal (z-score) [7]: -0.388
glycan array binding signal (z-score) [8]: -0.158
glycan array binding signal (z-score) [9]: -0.307
glycan array binding signal (z-score) (Gal(a1-3)Gal(b1-4)Glc): 0.104
glycan array binding signal (z-score) (Gal(a1-3)Gal(b1-4)GlcNAc): -0.529
glycan array binding signal (z-score) [10]: -0.666
glycan array binding signal (z-score) [11]: 0.005
glycan array binding signal (z-score) [12]: 0.35
glycan array binding signal (z-score) [13]: -0.248
glycan array binding signal (z-score) [14]: 0.249
glycan array binding signal (z-score) [15]: 0.45
glycan array binding signal (z-score) (Gal(a1-3)GalNAc): -0.336
glycan array binding signal (z-score) [16]: 0.417
glycan array binding signal (z-score) [17]: -0.52
glycan array binding signal (z-score) (Gal(a1-4)Gal(b1-4)Glc): 4.58
glycan array binding signal (z-score) (Gal(a1-4)Gal(b1-4)GlcNAc): -0.083
glycan array binding signal (z-score) [18]: 0.243
glycan array binding signal (z-score) [19]: 0.03
glycan array binding signal (z-score) (Gal(a1-4)GlcNAc): -0.452
glycan array binding signal (z-score) (Gal(a1-6)Glc): -0.338
glycan array binding signal (z-score) (Gal(b1-2)Gal): -0.488
glycan array binding signal (z-score) (Gal(b1-3)Gal): 0.586
glycan array binding signal (z-score) (Gal(b1-3)Gal(b1-4)GlcNAc): 0.14
glycan array binding signal (z-score) (Gal(b1-3)GalNAc): -0.106
glycan array binding signal (z-score) [20]: -0.14
glycan array binding signal (z-score) [21]: 0.047

— the supplement of paper PMC8728848
